Source: patent US20160229915A1 (Chugai, published 2016)

T1: human FcgRIIa, allotype H (H131), extracellular domain, C-terminal His tag (human, UniProt P12318 34-217)
T1 construct: extracellular domain; also called hFcgRIIaH; FcγRIIa H type; not shown: C-terminal His tag
T1 sequence (looked up): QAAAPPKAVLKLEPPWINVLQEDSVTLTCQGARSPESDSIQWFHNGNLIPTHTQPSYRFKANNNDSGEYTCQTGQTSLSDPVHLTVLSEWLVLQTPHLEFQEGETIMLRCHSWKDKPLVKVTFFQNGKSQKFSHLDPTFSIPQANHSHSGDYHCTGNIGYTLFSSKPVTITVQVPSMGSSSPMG

T2: human FcgRIIb extracellular domain, C-terminal His tag (human, UniProt P31994 43-217)
T2 construct: extracellular domain; also called hFcgRIIb; FcγRIIb; not shown: C-terminal His tag
T2 sequence (looked up): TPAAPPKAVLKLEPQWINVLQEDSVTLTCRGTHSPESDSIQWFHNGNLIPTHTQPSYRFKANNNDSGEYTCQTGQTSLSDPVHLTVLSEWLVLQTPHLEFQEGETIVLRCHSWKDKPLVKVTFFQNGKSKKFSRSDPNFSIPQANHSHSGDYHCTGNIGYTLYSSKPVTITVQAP

T3: human FcgRIIa, allotype R (R131), extracellular domain, C-terminal His tag (human, UniProt P12318 34-217)
T3 construct: extracellular domain; also called hFcgRIIaR; FcγRIIa R type; not shown: C-terminal His tag
T3 sequence (looked up): T1 sequence (looked up) with H134R

B1: MRAH-G1dP1/MRAL-k0 (antibody, human IgG1, kappa)
heavy: QVQLQESGPGLVRPSQTLSLTCTVSGYSITSDHAWSWVRQPPGRGLEWIGYISYSGITTYNPSLKSRVTMLRDTSKNQFSLRLSSVTAADTAVYYCARSLARTTAMDYWGQGSLVTVSS[human IgG1 constant region with D356K (EU numbers) not spelt out]
light: DIQMTQSPSSLSASVGDRVTITCRASQDISSYLNWYQQKPGKAPKLLIYYTSRLHSGVPSRFSGSGSGTDFTFTISSLQPEDIATYYCQQGNTLPYTFGQGTKVEIKRTVAAPSVFIFPPSDEQLKSGTASVVCLLNNFYPREAKVQWKVDNALQSGNSQESVTEQDSKDSTYSLSSTLTLSKADYEKHKVYACEVTHQGLSSPVTKSFNRGEC
notes: Homo variant with D356K (EU numbering) in G1d, lacking V397Y
B2: MRAH-G1dP17/MRAL-k0 (antibody, human IgG1, kappa)
heavy: QVQLQESGPGLVRPSQTLSLTCTVSGYSITSDHAWSWVRQPPGRGLEWIGYISYSGITTYNPSLKSRVTMLRDTSKNQFSLRLSSVTAADTAVYYCARSLARTTAMDYWGQGSLVTVSS[human IgG1 constant region with D356K V397Y (EU numbers) not spelt out]
light: B1 light
notes: Homo variant before Fab arm exchange; D356K/V397Y (EU numbering) in G1d
B3: H54-G1dN17/L28-k0 (antibody, human IgG1, kappa)
heavy: QVQLQESGPGLVKPSETLSLTCAVSGYSISDDQAWSWVRQPPGEGLEWIGYISYSGITNYNPSLKGRVTISRDTSKNQFSLKLSSVTAADTAAYYCARSLARTTAMDYWGEGTLVTVSS[human IgG1 constant region with V397Y K439E (EU numbers) not spelt out]
light: B1 light with R18S, R24Q, K45E, T51G, R53E, Q79E, P80A, I83A, T93S, K107E
notes: Homo variant before Fab arm exchange; V397Y/K439E (EU numbering) in G1d
B4: H54-G1dN1/L28-k0 (antibody, human IgG1, kappa)
heavy: QVQLQESGPGLVKPSETLSLTCAVSGYSISDDQAWSWVRQPPGEGLEWIGYISYSGITNYNPSLKGRVTISRDTSKNQFSLKLSSVTAADTAAYYCARSLARTTAMDYWGEGTLVTVSS[human IgG1 constant region with K439E (EU numbers) not spelt out]
light: B1 light with R18S, R24Q, K45E, T51G, R53E, Q79E, P80A, I83A, T93S, K107E
notes: Homo variant with K439E (EU numbering) in G1d, lacking V397Y
B5: MRAH-G1dP17/MRAL-k0//H54-G1dN17/L28-k0 (bispecific antibody, human IgG1, kappa)
heavy 1: B2 heavy
light 1: B1 light
heavy 2: B3 heavy
light 2: B1 light with R18S, R24Q, K45E, T51G, R53E, Q79E, P80A, I83A, T93S, K107E
notes: Product of Fab arm exchange between MRAH-G1dP17/MRAL-k0 (D356K/V397Y) and H54-G1dN17/L28-k0 (V397Y/K439E); also called G1dP17/N17; altered form after Fab arm exchange

Key:
[1] = molecular target: T1, human FcgRIIa, allotype H (H131), …; experiment: SPR (Biacore); relative binding activity, KD of G1d defined as 1
Procedure: (§1) Next, the binding activity against human FcgR was evaluated according to the method of Reference Example 4. In this context, MRAH-G1 d/MRAL-k0 having the sequence of naturally occurring IgG1, the altered form MRAH-G1dP17/MRAL-k0//H54-G1dN17/L28-k0 after Fab arm exchange, two types of homo variants before Fab arm exchange reaction (MRAH-G1dP17/MRAL-k0 and H54-G1dN17/L28-k0), and two types of homo variants lacking the alteration V397Y to destabilize CH3 domains (MRAH-G1dP1/MRAL-k0 and H54-G1dN1/L28-k0) were evaluated together. In Table 8, KD fold hFcgRIa, KD fold hFcgRIIaR, KD fold hFcgRIIaH, KD fold hFcgRIIb, and KD fold hFcgRIIIaV are values that indicate the relative binding activity of each altered form when KD of G1d for each FcgR is defined as 1.
(§2) The antibody of interest was captured onto these sensor chips and allowed to interact with the Fcγ receptor diluted with a running buffer. The binding amount to the antibody was measured and compared among antibodies. Since the binding amount of the Fcγ receptor depends on the amount of the captured antibody, a correction value determined by dividing the binding amount of the Fcγ receptor by the amount of each captured antibody was used in the comparison. The antibody captured on the sensor chip was washed off through the reaction of 10 mM glycine-HCl (pH 1.5) to regenerate the sensor chip, which was repetitively used.

[2] = molecular target: T2, human FcgRIIb extracellular domain, …; experiment: as above
Procedure: as §1, §2

[3] = molecular target: T4, human FcgRIIIa, allotype V (V158), extracellular domain, C-terminal His tag (human, UniProt P08637 fragment); experiment: as above
T4 construct: extracellular domain; also called hFcgRIIIaV; FcγRIIIa V158; not shown: C-terminal His tag
T4 sequence (P08637 17-208 F176V): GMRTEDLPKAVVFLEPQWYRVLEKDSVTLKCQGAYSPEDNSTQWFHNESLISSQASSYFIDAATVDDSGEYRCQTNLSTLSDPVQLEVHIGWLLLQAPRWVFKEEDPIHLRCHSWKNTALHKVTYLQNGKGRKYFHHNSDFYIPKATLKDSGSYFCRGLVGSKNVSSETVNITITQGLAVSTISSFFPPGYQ
Procedure: as §1, §2

[4] = molecular target: T5, human FcgRIa extracellular domain, C-terminal His tag (human, UniProt P12314 16-292); experiment: as above
T5 construct: extracellular domain; also called hFcgRIa; FcγRI; not shown: C-terminal His tag
T5 sequence (P12314 16-292): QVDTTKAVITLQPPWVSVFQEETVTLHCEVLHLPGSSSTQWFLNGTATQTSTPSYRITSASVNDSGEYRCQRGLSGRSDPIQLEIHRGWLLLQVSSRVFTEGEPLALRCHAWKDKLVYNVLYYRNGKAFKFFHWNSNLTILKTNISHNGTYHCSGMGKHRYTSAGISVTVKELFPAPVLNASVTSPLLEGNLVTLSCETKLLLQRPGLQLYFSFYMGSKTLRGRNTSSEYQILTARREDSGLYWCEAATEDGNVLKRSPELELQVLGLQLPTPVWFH
Procedure: as §1, §2

[5] = molecular target: T3, human FcgRIIa, allotype R (R131), …; experiment: as above
Procedure: as §1, §2

[6] = molecular target: T1, human FcgRIIa, allotype H (H131), …; experiment: SPR (Biacore), antibody captured on chip, His-tagged FcgR extracellular domain as analyte, 25 C
Procedure: as §1, §2

[7] = molecular target: T2, human FcgRIIb extracellular domain, …; experiment: as above
Procedure: as §1, §2

[8] = molecular target: T4, human FcgRIIIa, allotype V (V158), …; experiment: as above
Procedure: as §1, §2

[9] = molecular target: T5, human FcgRIa extracellular domain, …; experiment: as above
Procedure: as §1, §2

[10] = molecular target: T3, human FcgRIIa, allotype R (R131), …; experiment: as above
Procedure: as §1, §2

[11] = molecular target: T6, soluble human FcRn (complex of FcRn and beta2-microglobulin) (human, UniProt P55899 fragment; P61769 fragment); experiment: SPR (Biacore), human FcRn as analyte; pH not given
T6 construct: extracellular domain;mature
T6 sequence (P55899 24-297, chain 1 of 2): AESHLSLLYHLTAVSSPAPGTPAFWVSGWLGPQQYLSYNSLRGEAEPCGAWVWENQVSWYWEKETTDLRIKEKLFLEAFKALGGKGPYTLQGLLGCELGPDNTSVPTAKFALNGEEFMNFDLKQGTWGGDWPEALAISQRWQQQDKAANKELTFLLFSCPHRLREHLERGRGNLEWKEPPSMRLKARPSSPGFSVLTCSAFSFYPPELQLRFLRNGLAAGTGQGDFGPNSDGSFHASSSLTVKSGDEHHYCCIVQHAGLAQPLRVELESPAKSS
T6 sequence (P61769 21-119, chain 2 of 2, further chain): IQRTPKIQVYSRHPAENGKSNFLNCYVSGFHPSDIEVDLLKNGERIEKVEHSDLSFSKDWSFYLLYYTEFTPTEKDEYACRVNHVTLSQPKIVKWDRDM

| Binder | KD fold hFcgRIIaH [1] [fold] | KD fold hFcgRIIb [2] [fold] | KD fold hFcgRIIIaV [3] [fold] | KD fold hFcgRIa [4] [fold] | KD fold hFcgRIIaR [5] [fold] | Kd [6] [nM] | Kd [7] [nM] | Kd [8] [nM] | Kd [9] [nM] | Kd [10] [nM] | Kd [11] [nM] |
| --- | --- | --- | --- | --- | --- | --- | --- | --- | --- | --- | --- |
| B1 | 0.9 | 0.9 | 1 | 1 | 0.9 | 990 | 7000 | 510 | 0.16 | 1700 | – |
| B2 | 2.1 | 2.3 | 2 | 0.6 | 2.4 | 410 | 2700 | 250 | 0.26 | 650 | – |
| B3 | 2.2 | 2.6 | 2.5 | 1.3 | 2.6 | 390 | 2400 | 200 | 0.13 | 590 | – |
| B4 | 0.9 | 0.9 | 1.1 | 0.6 | 1 | 960 | 7100 | 450 | 0.25 | 1500 | – |
| B5 | 2.3 | 2.5 | 2.5 | 1.1 | 2.7 | 370 | 2500 | 210 | 0.14 | 580 | 1900 |

Positions count from the first letter of the chain named. In names and notes the source's numbering stands.
